Assay results as given in US20240207302A1, “ANTIVIRAL COMPOUNDS, METHODS FOR THE MANUFACTURING OF COMPOUNDS, ANTIVIRAL PHARMACEUTICAL COMPOSITION, USE OF THE COMPOUNDS AND METHOD FOR THE ORAL TREATMENT OF CORONAVIRUS INFECTION AND RELATED DISEASES THEREOF” (priority 2021, published 2024).

Target: SARS-COV-2 RNA polymerase (nsp12, nsp7 and nsp8) (Severe acute respiratory syndrome coronavirus 2, UniProt P0DTD1)
Experiment: SARS-COV-2 RNA polymerase cell-free assay (pyrophosphate luminescence)
Type: biochemical

Structure (SMILES): O=P(O)(O)OP(=O)(O)OP(=O)(O)OC[C@H]1O[C@@H](n2cnc3c(NCc4ccco4)ncnc32)C(O)C1O (stereo partly shown) [MB-717, kinetin-ribose 5'-triphosphate]
- IC50 relative to GS-443902: 3 fold
